Laboratory results as given in PubChem BioAssay (NCI).
Values joined by “and” are separate entries in the source; they are usually repeats but may differ in a detail not shown here. Identical values can stand only once.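 How tested: cells in 96-well plates exposed to compound for 48 hours at five concentrations. GI50: concentration for 50% inhibition of growth. Definition used: TGI = concentration required for complete inhibition of growth.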

tested on: NCI-H322M lung; experiment: growth of human tumour cells (NCI), 48 h

Going from `CC1CC2C(=O)N(c3ccccc3)C(=O)C2c2c1c1ccccc1n2Cc1ccccc1` (stereo unspecified) to `N=c1c2c(-c3ccccc3)c(-c3ccccc3)n(Cc3ccccc3)c2ncn1CCCO`, the TGI falls from greater than 100 µM to 24.2 µM.

`NC1=C(Br)C(=O)c2ncccc2C1=O` and `Cn1ccc2c(c1=O)C(=O)c1nccc3c1c-2nc1ccccc13` are within 1.5-fold of each other in TGI: 2.88 µM for the first, 3.38 µM for the second.

`Cn1c(=O)c(Oc2ccc(F)cc2F)cc2cnc(NC(CO)CO)nc21` and `Cc1nc2cnc3cc(F)c(-c4ccc(Oc5ncccn5)cc4Cl)cc3c2n1[C@H]1CCN(C(=O)CO)C[C@@H]1F` cannot be ordered by TGI: greater than 25 µM for the first, greater than 82.4 µM for the second.

`O=C(Cn1cc(F)c(=O)[nH]c1=O)C12CC3CC(CC(C3)C1)C2` and `CN1CCN(c2cc3c(cc2F)c(=O)c(C(=O)O)cn3C2CC2)CC1CC#N` (stereo unspecified) cannot be ordered by TGI: greater than 100 µM for the first, greater than 100 µM for the second.

Compared with `CCCCCCCCCCCCCCCCCCNc1ccn(C2OC(CO)C(O)C2O)c(=O)n1` (stereo unspecified), `CCCCCCCCCCC(O)[C@H]1CCC(C2CC[C@H]([C@H](O)CCCCCCCCCCC(O)CC3=CC(C)OC3=O)O2)O1` (stereo partly specified) is lower in TGI: greater than 100 µM for the first, 21.4 µM for the second.

`N#Cc1cccc(C(=O)Nc2cccc(NC(=O)c3cccc(C#N)c3)c2)c1` and `C=CCOc1ccc(/C(N=Nc2ccccc2)=N/NC(=O)c2ccccc2)cc1OC` cannot be ordered by TGI: greater than 100 µM for the first, greater than 100 µM for the second.

First: O=C1C=CC(=O)c2c(NCC3CC3)ccc(NCC3CC3)c21
Second: CC(C)(O)C1CCC(Nc2ccc3ncc(-c4cccc(C(F)(F)F)c4)n3n2)CC1 (stereo unspecified)
The TGI of the first is higher: greater than 100 µM for the first, 29.1 µM for the second.

`O=c1c2c(c1=O)C1(SCCCS1)c1cc(Cl)ccc1O2` and `O=C1OC(CC(=O)c2ccc(Cl)cc2Cl)C(Cl)=C1Cl` (stereo unspecified) cannot be ordered by TGI: greater than 100 µM for the first, greater than 100 µM for the second.

Going from `CCCCNc1c(CN)cnc2cc(Cl)ccc12` to `CN1CCN(c2nc(NCCCCNc3ccnc4cc(Cl)ccc34)c3ccccc3n2)CC1`, the TGI falls from 33.7 µM to 8.93 µM (3.8-fold).

`CC(C)[C@@]12C[C@@H](OC(=O)COC(=O)/C=C/c3ccccc3)[C@@](C)(O1)[C@@H]1CC[C@@H](C)[C@H]1[C@@H]2OC(=O)/C=C/c1ccccc1` and `CC(=O)OC1COC(n2nc(/C=C/c3ccc(Cl)cc3)c(=O)n(/N=C/c3ccccc3)c2=S)C(OC(C)=O)C1OC(C)=O` (stereo unspecified) cannot be ordered by TGI: greater than 100 µM for the first, greater than 100 µM for the second.

`CC(=O)O[C@@H]1[C@H]2[C@@H](OC(=O)c3ccccc3)[C@@H](C)C[C@]2(O)[C@H](OC(C)=O)[C@@]2(C)[C@@H]3CC(C)(C)C(=O)[C@]3(OC(C)=O)C[C@@]12C` and `C/C(=C\c1ccn(-c2ccc(N)c(F)c2)n1)[C@@H]1C[C@@H]2O[C@]2(C)CCC[C@H](C)[C@H](O)[C@@H](C)C(=O)C(C)(C)[C@@H](O)CC(=O)O1` cannot be ordered by TGI: greater than 25 µM for the first, greater than 50 µM for the second.

`COc1cc(C[C@H]2C(=O)OC[C@@H]2Cc2ccc(OC)c(OC)c2)cc(OC)c1` and `COc1ccc(C(Cc2cc(OC)c(OC)c(OC)c2)C(=O)O)cc1` (stereo unspecified) cannot be ordered by TGI: greater than 100 µM for the first, greater than 100 µM for the second.

`COC(=O)C1CC=C(SC(=O)c2ccccc2)N1C(=O)c1ccccc1` (stereo unspecified) and `C=CCN(N=O)C(=O)N(CCCC(NC(C)=O)C(=O)NCc1ccccc1)Cc1ccccc1` (stereo unspecified) cannot be ordered by TGI: greater than 100 µM for the first, greater than 100 µM for the second.

`COc1cc2nc(-c3cccs3)nc(N3C(c4ccc(O)cc4)=NNC(=O)c4ccccc43)c2cc1OC` and `COc1cccc(Nc2nc(-c3cccs3)nc3ccc(Br)cc23)c1` cannot be ordered by TGI: greater than 100 µM for the first, greater than 100 µM for the second.

`CCO[C@@H]1CCC(S(=O)c2ccc(C)cc2)=CO1` (stereo partly specified) and `CSc1nc(-c2ccc(C)cc2)c(C#N)c(=O)[nH]1` cannot be ordered by TGI: greater than 100 µM for the first, greater than 100 µM for the second.

`C=CC(C)(C)C(=C)C(=O)N(C)c1ccccc1I` and `COc1cc(Cl)cc(N(O)C(C)=O)c1OCc1ccccc1` cannot be ordered by TGI: greater than 100 µM for the first, greater than 100 µM for the second.

`CN=CN(C)c1c2ccccc2nc2ccccc12` and `Cc1cc(C)c2c(c1)Nc1ccccc1P2c1ccccc1` (stereo unspecified) cannot be ordered by TGI: greater than 100 µM for the first, greater than 100 µM for the second.

`COc1ccc(C(=O)/C=C/c2c(C(F)(F)F)nc3sccn23)cc1OC` and `O=C(O)CCC(NC(=O)c1ccc(Nc2cnc3ccc(C(F)(F)F)cc3n2)cc1)C(=O)O` (stereo unspecified) cannot be ordered by TGI: greater than 100 µM for the first, greater than 100 µM for the second.

`CC1(C)C2CCC(N)(C2)C1N` (stereo unspecified) and `COC(=O)C1C2C=CC(C2)C1(C(=O)OC)S(=O)CC12CCC(CC1O)C2(C)C` (stereo unspecified) cannot be ordered by TGI: greater than 100 µM for the first, greater than 100 µM for the second.

Going from `N#Cc1c2cccnc2c2nnc3cc(Cl)c(Cl)cc3n12` to `COc1ccc(-c2cc(-c3ccc(Nc4ccnc5cc(Cl)ccc45)cc3)nc(N)c2C#N)cc1`, the TGI rises from 6.48 µM to greater than 100 µM.

`COc1cc(/C=C/C(=O)OC2C(O)C3CC(OC(=O)c4cc(OC)c(OC)c(OC)c4)CC2N3C)cc(OC)c1OC` (stereo unspecified) and `COc1cc2c(cc1OC)CC(=O)c1cc(OC)c(OC)cc1/C=C\2` cannot be ordered by TGI: greater than 50 µM for the first, greater than 12.5 µM for the second.

`CS(=O)(=O)OCCn1cnc2nc(NC(=O)c3ccccc3)[nH]c(=O)c21` and `O=C(O)CCSCCCN1C(=O)c2ccccc2C1=O` cannot be ordered by TGI: greater than 100 µM for the first, greater than 100 µM for the second.

First: C(=Nc1ccc(-c2cc(-c3ccccc3)nc3ccc4ccccc4c23)cc1)c1ccccc1
Second: c1ccc(C(c2ccccc2)[P+](c2ccccc2)(c2ccccc2)c2ccccc2)cc1
The TGI of the first is higher: greater than 100 µM for the first, 13.3 µM for the second.

Compared with `C=C(C(=O)O)C1CCC(CC/C=C(\C)CC/C=C(\C)CCC=C(C)C)CO1` (stereo unspecified), `CC(C)C[C@H](NC(=O)[C@H]1O[C@@H]1C(=O)O)C(=O)NCCc1ccc(O)cc1` is higher in TGI: 40.6 µM for the first, greater than 100 µM for the second.

`CCC(CC)n1cc(C(=O)NC(=O)NCCCCCOC(=O)CCCCCCCCCCC(=O)OCCCCCNC(=O)NC(=O)c2cn(C(CC)CC)c(=O)[nH]c2=O)c(=O)[nH]c1=O` and `COC(=O)C1=C(C(=O)OC)C2C(C)=CC(C)=CN2C(C#N)=C(SC)S1` (stereo unspecified) cannot be ordered by TGI: greater than 100 µM for the first, greater than 100 µM for the second.

`c1cc(CCN2CCCCC2)ccn1` and `COc1cc(C2c3cc4c(cc3[C@@H](NCCN3CCCCC3)C3COC(=O)[C@H]23)OCO4)cc(OC)c1O` (stereo partly specified) cannot be ordered by TGI: greater than 100 µM for the first, greater than 100 µM for the second.

`COc1cc(NCc2ccc3nc(-c4ccccc4)c(N)nc3c2)cc(OC)c1OC` and `COC1(O)C(=O)c2ccccc2OC1(OC)c1ccccc1` (stereo unspecified) cannot be ordered by TGI: greater than 100 µM for the first, greater than 100 µM for the second.

`O=C(Cc1ccccc1)NN1C(=O)C(Cl)C1c1ccc([N+](=O)[O-])cc1` (stereo unspecified) and `O=c1[nH]/c(=C/c2ccc(OCc3ccccc3)cn2)c(=O)[nH]/c1=C/c1ccc(Cl)cc1` cannot be ordered by TGI: greater than 100 µM for the first, greater than 100 µM for the second.

Going from `COc1cc2c3c(n(CCCNCC(OC)OC)c(=O)c2cc1OC)-c1cc2c(cc1C3=O)OCO2` to `COc1c(OC)c(N)c2cc(C)c(=O)c(C)cc2c1N`, the TGI rises from 35.8 µM to greater than 100 µM.

`O=C(O)CSCC(=O)O` and `Nc1ncnc2c1ncn2CC(O)C(=O)O` (stereo unspecified) cannot be ordered by TGI: greater than 100 µM for the first, greater than 100 µM for the second.

First: NC1CC(N)c2c(Br)sc(Br)c21 (stereo unspecified)
Second: O=C1C=C[C@@]23C[C@@H](Nc4c(O)c5c6c(c42)=NCCC=6C=N5)SC3=C1
The TGI of the first is higher: greater than 100 µM for the first, 23.5 µM for the second.

`Cc1ccccc1NC(=O)C(=O)CC(=O)c1sc(Nc2ccccc2[N+](=O)[O-])nc1C` and `Cc1cc(C)nc(NC(=S)Nc2ccccc2Cl)c1` cannot be ordered by TGI: greater than 100 µM for the first, greater than 100 µM for the second.

Compared with `CCOC(=O)c1cc(C2CCN(CC(C)CC)C2=S)c(-c2cc(C)no2)[nH]1` (stereo unspecified), `O=C1/C(=C/c2ccc3c(c2)OCO3)CCC1CN1CCOCC1` (stereo unspecified) is lower in TGI: greater than 100 µM for the first, 30.6 µM for the second.

Going from `CC(C)(C)[Si](C)(C)OCC1OC(n2ccc(=O)[nH]c2=O)C(O[Si](C)(C)C(C)(C)C)[C@@]12O[C@H]2C(N)=O` (stereo partly specified) to `O=C(O)C12C3C4C1C1C2C3C1(Br)C41OCCO1` (stereo unspecified), the TGI rises from 49.9 µM to greater than 100 µM.

`C/C(=N\NC(=S)NC1CCCC1)c1ccccn1` showed a TGI greater than 75.5 µM.

Compared with `Cn1c(=O)c(Oc2ccc(F)cc2F)cc2cnc(NC(CO)CO)nc21`, `Cc1nc2cnc3cc(F)c(-c4ccc(Oc5ncccn5)cc4Cl)cc3c2n1[C@H]1CCN(C(=O)CO)C[C@@H]1F` is lower in GI50: greater than 25 µM for the first, 2.62 µM for the second.

Going from `N#Cc1cccc(C(=O)Nc2cccc(NC(=O)c3cccc(C#N)c3)c2)c1` to `N=c1c2c(-c3ccccc3)c(-c3ccccc3)n(Cc3ccccc3)c2ncn1CCCO`, the GI50 falls from 43 µM to 4.3 µM (10-fold).

First: CC(C)[C@@]12C[C@@H](OC(=O)COC(=O)/C=C/c3ccccc3)[C@@](C)(O1)[C@@H]1CC[C@@H](C)[C@H]1[C@@H]2OC(=O)/C=C/c1ccccc1
Second: C/C(=C\c1ccn(-c2ccc(N)c(F)c2)n1)[C@@H]1C[C@@H]2O[C@]2(C)CCC[C@H](C)[C@H](O)[C@@H](C)C(=O)C(C)(C)[C@@H](O)CC(=O)O1
The GI50 of the first is higher: greater than 100 µM for the first, 0.0167 µM for the second.

`COc1ccc(C(=O)/C=C/c2c(C(F)(F)F)nc3sccn23)cc1OC` and `CC(C)(O)C1CCC(Nc2ccc3ncc(-c4cccc(C(F)(F)F)c4)n3n2)CC1` (stereo unspecified) are within 1.5-fold of each other in GI50: 3.17 µM for the first, 2.63 µM for the second.

Compared with `N#Cc1c2cccnc2c2nnc3cc(Cl)c(Cl)cc3n12`, `Cn1ccc2c(c1=O)C(=O)c1nccc3c1c-2nc1ccccc13` is 1.5-fold lower in GI50: 2.67 µM for the first, 1.78 µM for the second.

Going from `CC(C)C[C@H](NC(=O)[C@H]1O[C@@H]1C(=O)O)C(=O)NCCc1ccc(O)cc1` to `CN1CCN(c2nc(NCCCCNc3ccnc4cc(Cl)ccc34)c3ccccc3n2)CC1`, the GI50 falls from greater than 100 µM to 2.62 µM.

`COc1cc2c3c(n(CCCNCC(OC)OC)c(=O)c2cc1OC)-c1cc2c(cc1C3=O)OCO2` and `O=C1C=C[C@@]23C[C@@H](Nc4c(O)c5c6c(c42)=NCCC=6C=N5)SC3=C1` are within 1.5-fold of each other in GI50: 13.7 µM for the first, 10.8 µM for the second.

With `CCCCCCCCCCC(O)[C@H]1CCC(C2CC[C@H]([C@H](O)CCCCCCCCCCC(O)CC3=CC(C)OC3=O)O2)O1` (stereo partly specified) the GI50 was 2.86 µM.

`O=C1/C(=C/c2ccccc2F)CNC/C1=C\c1ccccc1F` was tested, and the GI50 was 1.35 µM and 1.53 µM.

`O=C1/C(=C/c2ccccc2F)CNC/C1=C\c1ccccc1F` was tested, and the TGI was 4.28 µM and 3.75 µM.
